# Out of some 310,000 compounds screened, about 14,000 (4.5%) showed an effect of 50% or more. Effects have a minus sign here. Some of the results follow. Where a SMILES comes first, the peptide text is derived from it. [ ]: non-standard residue; d: D form. The star is where a group is joined. ξ: configuration not given here. Piv = CC(C)(C)C(=O)*; ξNva = CCCC(N)C(=O)O
# Molecular target: human ether-à-go-go-related gene (hERG) potassium channel (human, UniProt Q12809)
# Test: primary screen, population patch clamp on CHO cells stably expressing hERG
# 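Note: peak tail current of the secondary pulse compared with the same well before compound.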
# human ether-à-go-go-related gene (hERG) potassium channel, sequence (Q12809 whole entry, looked up): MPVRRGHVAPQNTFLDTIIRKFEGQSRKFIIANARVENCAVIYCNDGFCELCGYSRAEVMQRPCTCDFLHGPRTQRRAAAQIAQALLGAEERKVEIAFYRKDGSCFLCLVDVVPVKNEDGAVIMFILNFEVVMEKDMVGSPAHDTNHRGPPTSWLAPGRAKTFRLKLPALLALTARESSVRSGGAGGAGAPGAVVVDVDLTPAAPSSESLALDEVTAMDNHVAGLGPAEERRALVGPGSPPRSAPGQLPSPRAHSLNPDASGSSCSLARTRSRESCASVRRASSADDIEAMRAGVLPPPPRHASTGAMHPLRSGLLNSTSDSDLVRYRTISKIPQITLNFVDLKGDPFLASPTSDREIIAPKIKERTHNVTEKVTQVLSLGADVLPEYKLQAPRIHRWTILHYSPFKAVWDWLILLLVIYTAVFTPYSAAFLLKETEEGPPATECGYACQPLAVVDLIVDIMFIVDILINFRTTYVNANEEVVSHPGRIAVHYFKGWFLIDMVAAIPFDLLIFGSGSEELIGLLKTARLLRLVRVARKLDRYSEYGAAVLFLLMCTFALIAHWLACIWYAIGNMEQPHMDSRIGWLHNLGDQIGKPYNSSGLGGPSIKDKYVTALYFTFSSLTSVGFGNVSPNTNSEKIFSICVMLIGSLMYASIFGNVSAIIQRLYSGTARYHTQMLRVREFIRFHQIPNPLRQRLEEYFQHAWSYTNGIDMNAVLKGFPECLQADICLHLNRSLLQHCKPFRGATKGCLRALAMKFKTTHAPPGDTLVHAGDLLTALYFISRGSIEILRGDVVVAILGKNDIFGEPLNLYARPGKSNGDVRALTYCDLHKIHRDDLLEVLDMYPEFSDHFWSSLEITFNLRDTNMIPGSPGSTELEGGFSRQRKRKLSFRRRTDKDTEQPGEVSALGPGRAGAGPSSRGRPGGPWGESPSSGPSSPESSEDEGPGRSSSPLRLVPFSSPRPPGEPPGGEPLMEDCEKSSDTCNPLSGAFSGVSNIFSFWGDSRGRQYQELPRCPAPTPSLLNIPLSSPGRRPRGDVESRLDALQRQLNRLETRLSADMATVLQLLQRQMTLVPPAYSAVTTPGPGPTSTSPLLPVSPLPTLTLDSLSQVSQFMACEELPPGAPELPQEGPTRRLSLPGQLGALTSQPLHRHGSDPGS
row,SMILES,"hERG current change (%, negative = inhibition) at 10uM [%]"
1,O=C(NNS(=O)(=O)c1ccccc1[N+](=O)[O-])c1ccccc1Cl,27.9
2,O=C(Nc1ccc2nc3n(c(=O)c2c1)CCCC3)c1cccc([N+](=O)[O-])c1,-18.9
3,CN(C)c1ccc(/C=N/NS(=O)(=O)c2ccc(Br)cc2)cc1,5.14
4,CCC(=O)c1cc(F)ccc1OCC(=O)N1CCN(c2ccc(F)cc2)CC1,-72.1
5,COc1ccc(C(=O)CSc2nnc(C(CO)NC(=O)c3ccc(OC)cc3)n2C)cc1 (stereo not drawn),4.9
6,N#Cc1c(C(F)(F)F)cc(-c2ccccc2)[nH]c1=O,14.6
7,COCCN(C(=O)C(C)C)c1nnc(-c2ccc(C(C)(C)C)cc2)s1,30.1
8,Cc1ccc(CNS(=O)(=O)c2c(C)[nH]c(C)c2C(=O)N2CCCCC2)cc1,6.48
9,O=C(NCC(=O)N(c1cccnc1)C(C(=O)NC1CCCCC1)c1ccccc1)c1ccco1 (stereo not drawn),30.4
10,COc1cccc2cc(C(=O)NCC3CCCO3)c(=O)oc12 (stereo not drawn),12.4
11,CC(C)Nc1nc(-c2ccccn2)nc(-c2ccccc2)c1C#N,26.6
12,O=[N+]([O-])c1ccc(Cl)cc1,10.9
13,COc1ccc(CCNC(=O)c2cccc3ccccc23)cc1OC,7.77
14,S=c1nc2ccccc2c2nc(-c3cccnc3)[nH]n12,14.6
15,CCn1c(SCC(=O)c2c(N)n(C3CC3)c(=O)[nH]c2=O)nnc1-c1ccoc1C,11.3
16,COc1ccc(NC(=O)c2sccc2SCC#N)cc1,5.33
17,Fc1ccccc1OCC1CCCN(Cc2nc(CC3CC3)no2)C1 (stereo not drawn),-9.41
18,O=C(CSc1ccc(-c2ccc(F)cc2)nn1)N1CCOCC1,-17.4
19,CN(C)S(=O)(=O)c1ccc(N2CCCC2)c(C(=O)NCC(=O)Nc2ccc(F)c(F)c2)c1,-4.9
20,CCCN(CC(=O)Nc1ccccc1C)C(=O)c1oc2ccc(OCC)cc2c1C,-25.9
21,O=C(NCc1ccncc1)c1ccc(NS(=O)(=O)c2ccccc2)cc1,7.16

row,SMILES,"hERG current change (%, negative = inhibition) at 10uM [%]"
1,COc1cccc(CN2CCN(Cc3nc(-c4cccc(F)c4F)oc3C)CC2=O)c1,-32.3
2,O=c1c2c(-c3ccccc3)csc2ncn1/N=C/c1c2ccccc2cc2ccccc12,-11
3,O=C(/C=C/c1ccc(NC(=O)c2ccccc2-c2ccccc2C(=O)O)cc1)c1ccccc1,25.7
4,CC(C)Cn1cnc2c1c(=O)n(CC(=O)NN)c(=O)n2Cc1ccccc1,15.4
5,Cc1ccc(S(=O)(=O)NCc2ccc(C(=O)NC3CCCCC3)cc2)cc1,15.9
6,CCCCN(C(=O)c1ccc(COc2ccccc2)o1)c1c(N)n(CC(C)C)c(=O)[nH]c1=O,8.93
7,CN1CCc2c(sc3c2C(=O)NC(c2ccc4c(c2)OCO4)N3)C1 (stereo not drawn),-16.5
8,CCC(C)Sc1nc2c(cnn2-c2ccc(F)cc2)c(=O)[nH]1 (stereo not drawn),14.6
9,CCOC(=O)C1CCCCN1Cc1ccc(OC)c(OC)c1OC (stereo not drawn),-27.9
10,C=CCn1c(SCC(=O)N2CCN(c3ccc(F)cc3)CC2)nnc1-c1cccs1,-68.9
11,CCOC(=O)N1CCN(C(=O)c2c[nH]c3ccc(S(=O)(=O)N(C)c4cccc(C)c4)cc3c2=O)CC1,18.9
12,CCC(C)Nc1nc2c(c(=O)[nH]c(=O)n2C)n1CCC(C)C (stereo not drawn),0.589
13,OCCC1CN(Cc2cccn2-c2nccs2)CCN1CCc1ccccc1 (stereo not drawn),-73.6
14,COc1ccc(S(=O)(=O)NC(C)C(=O)NCc2cccnc2)cc1Cl (stereo not drawn),10.4
15,COc1ccccc1C(=O)Nc1nnc(-c2ccc(F)cc2)s1,-14.1
16,C/C(=N\NC(=S)NCc1ccccc1)C1CCCCC1,14.7
17,O=C(NNC(=O)C1CCCCC1)c1ccncc1,4.14
18,O=c1[nH]c(=S)[nH]c(O)c1/C=C1/C=c2ccccc2=N1,19.1
19,CC(C)C[C@H](NC(=O)c1nc[nH]c1C(=O)N1CCc2ccccc2C1)C(=O)OCc1ccccc1,-4.26
20,COc1ccc(Nc2nnc(SCC(=O)Nc3ccc4[nH]c(=O)[nH]c4c3)s2)cc1,17.5
21,COc1ccc(NC(=O)CC2COc3ccccc3O2)c(OC)c1 (stereo not drawn),-9.48

row,SMILES,"hERG current change (%, negative = inhibition) at 10uM [%]"
1,COc1ccccc1S(=O)(=O)Cc1ccc(C(=O)NCCCN2CCN(c3ccc(F)cc3)CC2)o1,-79.2
2,COc1ccc(NC(=O)CCCn2cc([N+](=O)[O-])cn2)cc1,-6.09
3,O=C(O)CCc1n[nH]c(=S)[nH]c1=O,5.81
4,COc1cc(CNc2ncc(-c3ccc(Cl)cc3)n2C)cc(OC)c1OC.O=C(O)C(=O)O,-66.9
5,Cc1ccc(OCCn2c(NC(=O)c3ccco3)nc3ccccc32)cc1,-5.24
6,CC1Cc2ccccc2N1C(=O)Cn1cnc2ccccc2c1=O (stereo not drawn),21.8
7,CN(Cc1ccccc1)C(=S)NC(=O)c1ccccc1,1.34
8,CCC(C)(C)n1nnnc1C(c1ccccc1F)N1CCC(C(N)=O)CC1 (stereo not drawn),1.53
9,COC(=O)[C@]1(CC(C)C)N[C@H](c2ccc(-c3cccc(Cl)c3)cc2)[C@@H]2C(=O)N(C)C(=O)[C@@H]21.O=C(O)C(F)(F)F,1.22
10,COc1cc(C2NC(=S)NC3=C2CCc2ccccc23)cc(OC)c1OC (stereo not drawn),9.58
11,Cc1cccc(NS(=O)(=O)c2ccc(C(=O)NCC(c3ccccc3)N(C)C)cc2)c1C (stereo not drawn),-4.98
12,CCCC(NC(=O)CNC(=O)C(C)(C)C)C(=O)O (stereo not drawn) (Piv-Gly-[ξNva]-OH),4.3
13,COc1ccc(Nc2nc3nonc3nc2N2CCCCC2)cc1,-24.2
14,O=C(N/N=C/c1ccncc1)c1ccc2c(c1)OCO2,10.8
15,O=C(COC(=O)Cc1cn2ccsc2n1)NC12CC3CC(CC(C3)C1)C2,-8.48
16,O=C(CN1CCOCC1)c1c[nH]c2ccccc12,5.71
17,COC(=O)C1=C(C(=O)OC)[C@@H]2Nc3ccccc3[C@@]23C[C@@H](C(=O)OC)N(C(C)=O)C3=N1,-1.06
18,O=C(NCc1ccccc1)c1ccc(Cl)cc1[N+](=O)[O-],11.1
19,Cc1occc1-c1nnc(SCC(=O)Nc2ccccc2-c2ccccc2)n1C,-30.7
20,C1CCCCC1.OCCN1CCN(C2Cc3cc(Cl)ccc3Sc3ccc(Cl)cc32)CC1 (stereo not drawn),9.86
21,COC(=O)c1ccc(COc2ccc(/C=N/Nc3cccc(C(=O)O)c3)cc2)cc1,23

row,SMILES,"hERG current change (%, negative = inhibition) at 10uM [%]"
1,CC1(C)CC(=O)C(C2c3ccccc3S(=O)(=O)c3ccccc32)C(=O)C1,14.5
2,Cc1cc(C)c(C(=O)COC(=O)c2nn(C)c(=O)c3ccccc23)cc1C,-30.4
3,CC1CCCCC1NC(=O)/C(C#N)=C/c1ccc2c(c1)OCCO2 (stereo not drawn),-12.9
4,Cc1cccc(/C(N)=N/OC(=O)c2cccnc2)c1,10.5
5,O=C(CCCN1C(=O)c2cccc3cccc(c23)C1=O)N1CCc2ccccc2C1,-26.2
6,CCSCc1nnc(SCC(=O)Nc2cccc(SC)c2)n1C,-13.5
7,CCCc1cc(C(=O)N2CCN(C(c3ccccc3)c3ccccc3)CC2)no1,-20.6
8,COc1cc(/C=N/Nc2cc(C)nc(N)n2)ccc1O,18.4
9,O=C(COc1cccc2ccccc12)N/N=C/c1ccc(Sc2nc3ccccc3s2)o1,16.6
10,CN(C(=O)c1cccc(S(=O)(=O)N2CCCC2)c1)C1CCCCC1,-1.08
11,CCCCn1c(/N=C/c2ccc3c(c2)OCO3)nc2ccccc21,-5.08
12,Cc1cc(NS(=O)(=O)c2ccc(NC(=S)NC(=O)c3cccc(S(=O)(=O)N(C)C)c3)cc2)no1,37
13,COc1cccc(CSc2nc3ccccc3[nH]2)c1,-16.9
14,CCN(CC)C(=O)Cn1cc(C(=O)C2CC2)c2ccccc21,5.42
15,CCOC(=O)Cc1csc(NC(=O)CCN2C(=O)c3cccc([N+](=O)[O-])c3C2=O)n1,4.52
16,COc1cc(C(=O)N(C)CCOc2ccc(C)cc2)ccc1OC1CCN(C(C)=O)CC1,8.41
17,CC(=O)N(CCc1ccccc1)Cc1cc2ccc(C)c(C)c2[nH]c1=O,-14.9
18,O=C(Cc1nn[nH]n1)Nc1cc(Cl)cc(Cl)c1,23.1
19,C#CCOCCOCCOCCNc1nc(N2CCN(C(=O)[C@H]([C@@H](C)CC)n3cc(CCC[NH+]=C(N)N)nn3)CC2)nc(N2CCN(C(=O)[C@H](CCCC[NH3+])n3cc(CCC(=O)O)nn3)CC2)n1.[Cl-],7.93
20,CCCC12CN3CCN(CC(C3)/C1=N\NC(=O)c1ccncc1)C2,4.11
21,Cc1cc(=O)oc2cc(OCCSCCN3CCCC3)ccc12,-4.09
